Some of the results follow.

The test system of this assay is PfHDP1 homeodomain (GST-tagged). In words: gcPBM binding intensity (ln(normalized median fluorescence intensity)); higher = stronger DNA binding. The method, boiled down:
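Alexa488 anti-GST antibody, scanned at 488 nm, detected GST-tagged P. falciparum DNA-binding domains that had been expressed in E. coli and incubated for 1 h on an Agilent 4 × 180k array. The array carried primer-extended double-stranded 36-bp intergenic genomic probes and negative controls. Binding intensity is the highest Masliner-normalised natural-log median intensity across replicate spots of either orientation of each probe.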
With “GGTGAAATTATTTCTACATGCAGAAATAATTAATTA [TGCATGCA_site194]”, the “gcPBM binding intensity (ln)” value turned out to be 6.4.
Under “AATTTAATATAATGCACACATAAAAAAAAAATCAAA [CACACA_site1]” stands 9.95; under “AAATTATTTCTTTGCGCATGTAGCTTTTATACTATT [TGCATGCA_site819]”, 7.44.
Under “ACATAAATAATAAAAACACACATATGTACCTATATA [CACACA_site6982]” stands 6.55.
On to “AATACATGCTAAAAACGTACACGTATAAAATTATAT [XGTACX_site3169]”, for which the “gcPBM binding intensity (ln)” value is 6.55.
With “TTACATTTTTGAAATAGATACATACACGTGTATGTA [CACACA_negctrl_site1311]”, the “gcPBM binding intensity (ln)” value amounted to 6.49.
On to “GACATTAAAATGAAATATACATATATATGTATATAT [TGCATGCA_negctrl_site601]”, for which the “gcPBM binding intensity (ln)” value was found to be 6.61.
For the sequence “CATATTTGTATATGCACACATAAATTTTTCCATTTC [CACACA_site3467]”, the “gcPBM binding intensity (ln)” value was 10.2.
Then “AAATTTTTAAACAGCACACATAAATATAATATATAT [CACACA_site2208]”, with 6.73; and “AAAATTAACCGTAACACACACACATATATATATATA [CACACA_site3964]”, with 9.17; and “TATATGTTTACTTAATGTACTTACATTTTTATAACA [XGTACX_site1100]”, with 6.41.
Under “AAACAAAAAAACTACAGTACTTTTTTCAATTCCCCT [XGTACX_site7541]” stands 6.58; under “TTATTAATTTTTATTTTTAAATCACAAAAGATATAA [CACACA_negctrl_site787]”, 5.82.
On to “ACATAAATAATAAAAACACACATATGTACTTATATA [CACACA_site8581]”, for which the “gcPBM binding intensity (ln)” value was 6.38.
For the sequence “AATACTTTTTATTTAGTGCATAAGAAAATATAAATC [GTGCAC_site9875]”, the “gcPBM binding intensity (ln)” value worked out at 10.3.
For the sequence “TATAAAATATGTATGAGGAATAAAATTAAAAAAAAA [TGCATGCA_negctrl_site178]”, the “gcPBM binding intensity (ln)” value turned out to be 6.09.
Take “AAAAAAAAAAATTCGGTGCAATGTAATTAATGTAAA [GTGCAC_site9588]”: the “gcPBM binding intensity (ln)” value was 9.83.
Under “TCTTGTATACGGCATGCATGTTAGCACATACGGACA [TGCATGCA_site146]” stands 6.69; under “TTTTTAAAACCTTACATACACACAAATATATATATA [CACACA_site678]”, 8.4; under “TGAATTCATAGCAGTTGTACATTGCATGAAGAAACG [XGTACX_site3312]”, 6.71.
Then “TGTTCCGAAGGTTGTACACACATAGAAATATACATA [CACACA_site3874]”, with 6.65.
Under “AATATAAGAATATATACACACATAAATACATACATA [CACACA_site4128]” stands 6.62; under “ATATATATATATATTACACACATGTGCAATTAAAAT [CACACA_site1778]”, 10.7; under “TGGTAATACACATACACACACACATACACATATATA [CACACA_site7312]”, 8.22.
Turning to “AATTGAAAAATCAGCACACACACAAATACATACATA [CACACA_site3232]”, the “gcPBM binding intensity (ln)” value was 6.95.
Then “GCTATATATTACAATCGTACAATATATATATATATA [XGTACX_site6730]”, with 9.15; and “AATTGATACCTTACATGTACATAATATATATAAATA [XGTACX_site321]”, with 7.23.
Under “TTTTTACATACAAATTAACACACATATAGAAAAGAG [CACACA_site8570]” stands 7.08.
Then “GAACCATTTTTTGGTATACACACGTAATTATATAAT [CACACA_site8552]”, with 6.8; and “CCTTTATAAAAAAGTAGTACACAATGAATTTATAAT [XGTACX_site5523]”, with 6.63.
Regarding “CAATACTAATTGTATACACACAAAAATATACCATAT [CACACA_site3326]”, the “gcPBM binding intensity (ln)” value amounted to 6.52.
Under “TCTTTTTTTACTTTCTTTTTTTTTTTTTTTTTTTTT [XGTACX_negctrl_site610]” stands 6.86; under “TGTTAATTAAAACATCATTAATATTATTAAAAATAC [XGTACX_negctrl_site509]”, 6.26; under “TATATTAATTTATATCAACACACAAAATCAATATAC [CACACA_site8518]”, 6.59.
Take “TTAGCTACACGCTAATGTACACAAATACAAAGAAAA [XGTACX_site3993]”: the “gcPBM binding intensity (ln)” value came to 6.58.
Then “TATACGCATATATAAACACACAAAAAAAAAAAAAAA [CACACA_site2026]”, with 6.33.
Consider “ATAAAATATTATATATATATATATATATATATATAT [CACACA_negctrl_site215]”, for which the “gcPBM binding intensity (ln)” value is 9.37.
As for “AAGAATGTTATATTATGATGCTGTCTTTTTTTAAGA [CACACA_negctrl_site251]”, the “gcPBM binding intensity (ln)” value stood at 5.94.
On to “AATAAACATATATGTACACACATATACATATATATA [CACACA_site2848]”, for which the “gcPBM binding intensity (ln)” value stood at 6.62.
Under “TTTTTTTTTAATTATGCATGTAAATTATATATTATA [TGCATGCA_site335]” stands 6.35; under “TATTTATAATTAAATACACACATATATTATATATTT [CACACA_site616]”, 6.6.
Then “TAATTTTTTTTATTATGTACTTAATAAATGTTAATT [XGTACX_site365]”, with 6.31; and “TATATTTATAGACACACACACAAAAAAAAAAAAAAA [CACACA_site6818]”, with 6.28; and “AAATTATTTATATGTTGTACTTATCCATTTTTATAA [XGTACX_site7441]”, with 6.56.
Then “ACATAAGATGAAAAATGTACATTCAAAAAATGAAAT [XGTACX_site3227]”, with 6.52; and “AAATTTCATGGGTATTGTACATAATTTTATTATATA [XGTACX_site4988]”, with 6.61; and “ACAAAACTGTCTTTCACACAGAAATAAAAAAAAAAA [CACACA_site5829]”, with 6.11.
“TGATAAGGATGTGAATTACTCAAAGGAAGTAATCAT [CACACA_negctrl_site1432]”: the “gcPBM binding intensity (ln)” value is 6.15.
As for “ATTTTATTTTCATATGAACACACATATATATATTAT [CACACA_site8741]”, the “gcPBM binding intensity (ln)” value came out at 7.61.
Under “AACAACCAAAGGCACACACACAAAAAAAAAAATATA [CACACA_site399]” stands 6.55; under “CTGCGTTTAATATGCGTGCACCTTGGTTTTATATCT [GTGCAC_site9525]”, 8.8.
For the sequence “TTTTAAATATGCCATACACACTACTATATAATAAAT [CACACA_site5119]”, the “gcPBM binding intensity (ln)” value is 6.74.
Under “TGTTGTATTGAAGCTAAAAAATGAGGCAAAAAAAAA [CACACA_negctrl_site1189]” stands 6.67; under “TTTATATAATATAAATTTTTTTTGCAGTAATAAAAA [TGCATGCA_negctrl_site570]”, 6.37.
In the case of “ACTTCAAAAAAAAAAAAATATATATATATATATTAT [GTGCAC_negctrl_site158]”, the “gcPBM binding intensity (ln)” value came to 6.46.
Under “ATTTATGAGTAATACACACACTTGTGGATATATTAC [CACACA_site7735]” stands 6.89; under “TTATACACAAAAAAAAAAATATATATATATATATAT [XGTACX_negctrl_site5]”, 9.52.
Then “TATATATATGTATGTGGTACTTATATTATATACATA [XGTACX_site4550]”, with 6.27.
Under “TATTTACACCCATGCGCACACATAAATAAATAATAG [CACACA_site5350]” stands 7.91.
On to CCATGTAGTGAATAGGTGCATATCAAAAAAAAAAAA, for which the “gcPBM binding intensity (ln)” value amounted to 8.24.
With “ATACATATGGTGGATCGTACATATATATAATATGTA [XGTACX_site8631]”, the “gcPBM binding intensity (ln)” value is 6.5.
Under “ACAGAAAATAAAATTTGTACATATATAGAATAAAGA [XGTACX_site3014]” stands 6.59; under “TAAATATCAAGACACACACACAAAAGTGAATAAATA [CACACA_site7723]”, 6.61.
Then “AGATATTATTTATATATTTATATATATATATAGATA [TGCATGCA_negctrl_site77]”, with 6.23.
Under “AGAGAAAAAAAAAATTGTACGTATGTAATAATATGC [XGTACX_site2981]” stands 6.88; under “AAAGTAAAAGAAAGCACACACACATGGATTTATGTA [CACACA_site5997]”, 6.55.
In the case of “TTCTTTTTAAATTACACACACATATATATATGTATA [CACACA_site3515]”, the “gcPBM binding intensity (ln)” value amounted to 7.15.
Then “ATTATTTATTATTTCTGTACGTATAAAAATAACATT [XGTACX_site1671]”, with 6.67; and “ATAAAACATAAAAATCGTACAAAGGAGGATATAAGG [XGTACX_site420]”, with 7.27.
Regarding “AAAATGATGTTAATTACACACATCATCTCATAAACA [CACACA_site3017]”, the “gcPBM binding intensity (ln)” value is 6.23.
Regarding “TGGAGGTCAGTTCACAGTACCCAGAAAACTCTACGA [XGTACX_site2561]”, the “gcPBM binding intensity (ln)” value was 5.7.
Turning to “CTTTTAATGGTGTAAAGTACTTTCTTAAGGTTCAAA [XGTACX_site8423]”, the “gcPBM binding intensity (ln)” value came out at 6.44.
On to TTTAATTATTAAATGGTGCACTTGAAATATAAAAAT, for which the “gcPBM binding intensity (ln)” value was 10.1.
Under “ATATATGGGGCGCAGGAAAAGAGTTTTGGAAATAAA [CACACA_negctrl_site1265]” stands 6.53; under “AAGTTATATAAAGGAACACACATTTGATTTTATTTT [CACACA_site6814]”, 6.31.
For “TATACAACGTTAAGCACACACAAAAAAAATTTAATA [CACACA_site3086]”, the “gcPBM binding intensity (ln)” value was 6.67.
Under “TAACATTATATATATTGTACATAGTAAATATTATAT [XGTACX_site5421]” stands 6.15.
Under “ATTTAAATTATAAAATGTACATTTAACAAATTTTAT [XGTACX_site770]” stands 6.34.
Regarding “TGTAATCTGGAGAAAAGTACACAGTATCTGGTAGCT [XGTACX_site2039]”, the “gcPBM binding intensity (ln)” value turned out to be 5.84.
Under “AAAAAAAAAAAGAAGGAAACATTTGACCAAAAATAT [GTGCAC_negctrl_site404]” stands 6.48.
Consider “ATTCTATACATATATATACACACGTAGTTTCTATTT [CACACA_site2223]”, for which the “gcPBM binding intensity (ln)” value amounted to 6.72.
For the sequence “GTTAATATACTTAATACACACACGAATATATATAAA [CACACA_site1181]”, the “gcPBM binding intensity (ln)” value is 6.95.
Then “AAAGTAAAAAAAAAAACATGCACATATTTACTTTAT [TGCATGCA_site849]”, with 7.94.
Then “TTTTTTTTGGTTTTCATGCACACAATTTATAAATCT [CACACA_site3107]”, with 8.94.
Then “AAGGGAATATACCTTACACACAAAAATGCAGATATA [CACACA_site1451]”, with 6.42; and “CTAATCAAAATAAATTAACACACAATTTTAATATTG [CACACA_site7887]”, with 6.07.
In the case of “ATATACTTACATATTACACACAATATTTTTAAATGT [CACACA_site3627]”, the “gcPBM binding intensity (ln)” value worked out at 6.83.
Then “AAAAAAAACACGCGCACACACACACCCACCCACCGA [CACACA_site2206]”, with 7.07.

The values above are taken from the supplement of paper PMC11417369.
